# Laboratory results as given in patent US10299477B2 (priority 2015, dated 2019).
# Legend:
# Phytophthora infestans = type: in vivo; conditions: late blight on tomato, Phytophthora infestans; 250 ppm spray, 5-10 days after inoculation
# Magnaporthe grisea = type: in vivo; conditions: rice blast, Magnaporthe grisea; 250 ppm spray
Compound,Test F (control value class) (Phytophthora infestans),Test A (control value class) (Magnaporthe grisea)
Cn1c(-c2c(F)cccc2F)c(-c2cc(F)ccc2Cl)cc(F)c1=O [Compound 513],L (L shows 50% or less of control values),H (H shows more than 50% of control values)
CCN1C(=O)CCC(c2ccccc2F)=C1c1c(F)cc(F)cc1F [Compound 514],L (L shows 50% or less of control values),H (H shows more than 50% of control values)
COc1cc(F)c(-c2c(-c3cccc(F)c3Cl)cc(C)c(=O)n2C)c(F)c1 [Compound 517],L (L shows 50% or less of control values),H (H shows more than 50% of control values)
CCn1c(-c2c(F)cccc2F)c(-c2cccc(F)c2F)ccc1=O [Compound 518],H (H shows more than 50% of control values),H (H shows more than 50% of control values)
CCn1c(-c2c(F)cccc2F)c(-c2cccc(F)c2F)cc(Cl)c1=O [Compound 519],L (L shows 50% or less of control values),H (H shows more than 50% of control values)
CCn1c(-c2c(F)cccc2F)c(-c2cccc(F)c2F)cc(Br)c1=O [Compound 520],L (L shows 50% or less of control values),H (H shows more than 50% of control values)
Cc1cc(-c2cccc(Cl)c2F)c(-c2c(F)cccc2F)n(CC(F)F)c1=O [Compound 521],L (L shows 50% or less of control values),H (H shows more than 50% of control values)
CCn1c(-c2c(F)cccc2F)c(-c2cc(Cl)ccc2F)ccc1=O [Compound 522],L (L shows 50% or less of control values),H (H shows more than 50% of control values)
CCn1c(-c2c(F)cccc2F)c(-c2cc(Cl)ccc2F)cc(Cl)c1=O [Compound 523],L (L shows 50% or less of control values),H (H shows more than 50% of control values)
Cn1c(-c2c(F)cccc2F)c(-c2cc(Cl)ccc2F)ccc1=O [Compound 524],L (L shows 50% or less of control values),H (H shows more than 50% of control values)
Cn1c(-c2c(F)cccc2F)c(-c2cc(Cl)ccc2F)cc(Cl)c1=O [Compound 525],L (L shows 50% or less of control values),H (H shows more than 50% of control values)
CN1C(=O)CCC(c2ccccc2F)=C1c1c(F)cc(F)cc1F [Compound 526],L (L shows 50% or less of control values),L (L shows 50% or less of control values)
CCn1c(-c2c(F)cc(F)cc2F)c(-c2ccccc2F)ccc1=O [Compound 527],L (L shows 50% or less of control values),H (H shows more than 50% of control values)
Cn1c(-c2c(F)cc(F)cc2F)c(-c2ccccc2F)ccc1=O [Compound 528],H (H shows more than 50% of control values),H (H shows more than 50% of control values)
CCn1c(-c2c(F)cc(F)cc2F)c(-c2ccccc2F)cc(Cl)c1=O [Compound 529],L (L shows 50% or less of control values),H (H shows more than 50% of control values)
CCn1c(-c2c(F)cc(OC)cc2F)c(-c2ccccc2F)ccc1=O [Compound 530],L (L shows 50% or less of control values),H (H shows more than 50% of control values)
CCn1c(-c2c(F)cc(OC)cc2F)c(-c2ccccc2F)cc(Cl)c1=O [Compound 531],L (L shows 50% or less of control values),H (H shows more than 50% of control values)
CCn1c(-c2c(F)cc(F)cc2F)c(-c2ccccc2F)cc(Br)c1=O [Compound 532],L (L shows 50% or less of control values),H (H shows more than 50% of control values)
CCn1c(-c2c(F)cccc2F)c(-c2cc(OC)ccc2Cl)cc(F)c1=O [Compound 533],L (L shows 50% or less of control values),H (H shows more than 50% of control values)
CCn1c(-c2c(F)cccc2F)c(-c2cccc(F)c2F)cc(C)c1=O [Compound 534],L (L shows 50% or less of control values),H (H shows more than 50% of control values)
Cn1c(-c2c(F)cccc2F)c(-c2cccc(F)c2F)ccc1=O [Compound 535],L (L shows 50% or less of control values),H (H shows more than 50% of control values)
Cn1c(-c2c(F)cccc2F)c(-c2cccc(F)c2F)cc(Br)c1=O [Compound 536],L (L shows 50% or less of control values),H (H shows more than 50% of control values)

Compound,Test F (control value class) (Phytophthora infestans),Test A (control value class) (Magnaporthe grisea)
Cn1c(-c2c(F)cccc2F)c(-c2cccc(F)c2F)cc(Cl)c1=O [Compound 537],L (L shows 50% or less of control values),H (H shows more than 50% of control values)
Cc1cc(-c2cccc(F)c2F)c(-c2c(F)cccc2F)n(C)c1=O [Compound 538],H (H shows more than 50% of control values),H (H shows more than 50% of control values)
O=c1ccc(-c2cc(Cl)ccc2F)c(-c2c(F)cccc2F)n1CC(F)F [Compound 539],H (H shows more than 50% of control values),H (H shows more than 50% of control values)
O=c1c(Cl)cc(-c2cc(Cl)ccc2F)c(-c2c(F)cccc2F)n1CC(F)F [Compound 540],L (L shows 50% or less of control values),H (H shows more than 50% of control values)
CCn1c(-c2c(F)cc(OC)cc2F)c(-c2ccccc2F)cc(Br)c1=O [Compound 541],L (L shows 50% or less of control values),H (H shows more than 50% of control values)
CCn1c(-c2c(F)cc(F)cc2F)c(-c2ccccc2F)cc(C)c1=O [Compound 542],H (H shows more than 50% of control values),H (H shows more than 50% of control values)
Cn1c(-c2c(F)cc(F)cc2F)c(-c2ccccc2F)cc(Cl)c1=O [Compound 543],L (L shows 50% or less of control values),H (H shows more than 50% of control values)
COc1cc(F)c(-c2c(-c3ccccc3F)ccc(=O)n2C)c(F)c1 [Compound 544],L (L shows 50% or less of control values),H (H shows more than 50% of control values)
Cn1c(-c2c(F)cc(F)cc2F)c(-c2ccccc2F)cc(Br)c1=O [Compound 545],L (L shows 50% or less of control values),H (H shows more than 50% of control values)
CCn1c(-c2c(F)cc(OC)cc2F)c(-c2cc(F)cc(F)c2F)cc(Cl)c1=O [Compound 546],L (L shows 50% or less of control values),H (H shows more than 50% of control values)
CCOc1cc(F)c(-c2c(-c3cc(F)ccc3Cl)cc(Cl)c(=O)n2CC)c(F)c1 [Compound 547],L (L shows 50% or less of control values),H (H shows more than 50% of control values)
CCn1c(-c2c(F)cc(OC)cc2F)c(-c2cc(F)cc(F)c2F)ccc1=O [Compound 548],L (L shows 50% or less of control values),H (H shows more than 50% of control values)
COc1cc(F)c(-c2c(-c3cc(F)cc(F)c3F)cc(Cl)c(=O)n2C)c(F)c1 [Compound 549],L (L shows 50% or less of control values),H (H shows more than 50% of control values)
COc1cc(F)c(-c2c(-c3cc(F)cc(F)c3F)ccc(=O)n2C)c(F)c1 [Compound 550],L (L shows 50% or less of control values),H (H shows more than 50% of control values)
CCn1c(-c2c(F)cccc2F)c(-c2cc(F)cc(F)c2Cl)ccc1=O [Compound 551],L (L shows 50% or less of control values),H (H shows more than 50% of control values)
CCn1c(-c2c(F)cccc2F)c(-c2cc(F)cc(F)c2Cl)cc(Cl)c1=O [Compound 552],L (L shows 50% or less of control values),H (H shows more than 50% of control values)
Cn1c(-c2c(F)cccc2F)c(-c2cc(F)cc(F)c2Cl)ccc1=O [Compound 553],H (H shows more than 50% of control values),H (H shows more than 50% of control values)
Cn1c(-c2c(F)cccc2F)c(-c2cc(F)cc(F)c2Cl)cc(Cl)c1=O [Compound 554],L (L shows 50% or less of control values),H (H shows more than 50% of control values)
O=c1ccc(-c2cc(F)cc(F)c2Cl)c(-c2c(F)cccc2F)n1CC(F)F [Compound 555],L (L shows 50% or less of control values),H (H shows more than 50% of control values)
O=c1c(Cl)cc(-c2cc(F)cc(F)c2Cl)c(-c2c(F)cccc2F)n1CC(F)F [Compound 556],L (L shows 50% or less of control values),H (H shows more than 50% of control values)
Cn1c(-c2c(F)cc(F)cc2F)c(-c2cccc(F)c2F)ccc1=O [Compound 557],L (L shows 50% or less of control values),H (H shows more than 50% of control values)
CCn1c(-c2c(F)cc(F)cc2F)c(-c2cccc(F)c2F)ccc1=O [Compound 558],L (L shows 50% or less of control values),H (H shows more than 50% of control values)
